42 sequences from article PMC7819943, “Rice protein-binding microarrays: a tool to detect cis-acting elements near promoter regions in rice” can be followed below.

The other results are listed elsewhere or left out.

The experiment has as its target T1, OsWOX13 (Oryza sativa, UniProt Q5QMM3 1-267).
T1 sequence: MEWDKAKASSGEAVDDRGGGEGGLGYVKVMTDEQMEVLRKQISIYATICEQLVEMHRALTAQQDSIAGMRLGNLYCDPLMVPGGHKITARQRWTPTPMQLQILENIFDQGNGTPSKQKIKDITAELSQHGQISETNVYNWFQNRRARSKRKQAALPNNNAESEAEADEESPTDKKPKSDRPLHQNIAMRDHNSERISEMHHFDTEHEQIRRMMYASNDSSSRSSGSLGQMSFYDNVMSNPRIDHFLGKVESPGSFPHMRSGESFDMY
The experiment can be described thus: protein-binding microarray (RPBM); PBS, 2% BSA, 51.3 ng/ul salmon testes DNA, 50 uM zinc acetate, 200 nM TF, 25 C, 1 h; high values mean tight binding. The following applies: protein: recombinant; tags: N-terminal polyhistidine and DsRed monomer fusion (pET32a); label: CyDye5-dUTP incorporated in the synthesized complementary strand; 3' TTTTT single-stranded linker to array surface; dsDNA, one strand shown. The method, boiled down:
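In PBS with 2% BSA, salmon testes DNA and 50 µM zinc acetate, 200 nM protein was incubated on a custom Agilent array at 25 °C for 1 h and then washed off. The array had been made double-stranded by primer extension with Cy5-dUTP and blocked with 2% BSA. The proteins were transcription factors fused N-terminally to polyhistidine and DsRed, expressed in E. coli BL21-CodonPlus and purified on Ni–NTA. The binding signal is per-feature fluorescence intensity (arbitrary units) from an Axon 4000B scanner.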
With “TAATAATTGTTAGCTGATGATGATGTGACATCTTTGCATGCGGAGTCACCTAGTGCAG”, the binding signal is 28900 fluorescence intensity (a.u.). Take “ATCAAATCTAGCCATTGATTTTGCAGGGGTACGATCGGAACGGAGTCACCTAGTGCAG”: the binding signal is 4570 fluorescence intensity (a.u.). On to “CTTGTATCTGTCATTGCTGGATTGGAGTGTTTCGATTTGTCGGAGTCACCTAGTGCAG”, for which the binding signal was 4830 fluorescence intensity (a.u.). For “TAGCTCAATTAAATATAGTTATACTCTAAGTTATATATGACGGAGTCACCTAGTGCAG” the value was 3260 fluorescence intensity (a.u.); for “GGGCTCTGATTTCTTGTTTCAGTTAACCGCCCATACGAAGCGGAGTCACCTAGTGCAG”, 4110 fluorescence intensity (a.u.); for “AATGAATGATATATTTGTATTATAGGATGTGTCATATCCCCGGAGTCACCTAGTGCAG”, 11800 fluorescence intensity (a.u.). For “CTATCAATCAAAGGGGCCCTTAGAATTCAGAAGCTGGTTTCGGAGTCACCTAGTGCAG” the value was 18600 fluorescence intensity (a.u.). For “AGCCTAATTAATTCATCATTAGTAAATATTTACTATAACACGGAGTCACCTAGTGCAG” the value was 20000 fluorescence intensity (a.u.); for “CTGTAGCTGATTATAAATCTATAGTGCTCTTATCTCTCATCGGAGTCACCTAGTGCAG”, 8710 fluorescence intensity (a.u.); for “CGCGTGTGGTGATTGGCTGGCTCTTTGCCTCATCATGGGCCGGAGTCACCTAGTGCAG”, 34100 fluorescence intensity (a.u.). “TAATTTTAAATTGTAAAATAATAGAGCTAACAAGTTGTGCCGGAGTCACCTAGTGCAG”: the binding signal was 7000 fluorescence intensity (a.u.). For “TATAATTATCCTCTTCCGCAGACCATGTAAGAGGAAAACACGGAGTCACCTAGTGCAG” the value was 5620 fluorescence intensity (a.u.); for “GCCGCATCATCAGCCAATTAATCCCCTAACCATCCCCTTTCGGAGTCACCTAGTGCAG”, 7460 fluorescence intensity (a.u.). For “GGTAAATTATTATTCTGGGATAATTCGAGCGGCAAGCTCACGGAGTCACCTAGTGCAG” the value was 25800 fluorescence intensity (a.u.). For “CCTAATCTTGTGAGTAATCAAGCCTATTTCATTTGATATACGGAGTCACCTAGTGCAG” the value was 3260 fluorescence intensity (a.u.); for “TTTCTATTTCATTTCTAATTTAATTCATCGGATTGAATCTCGGAGTCACCTAGTGCAG”, 4250 fluorescence intensity (a.u.). Take “GCCCAAATTAGCAGCTGCTTTGGTGAAACTTTGTGTATAACGGAGTCACCTAGTGCAG”: the binding signal was 4800 fluorescence intensity (a.u.). For “CTTGATTACGGCCATTAGGGCTTAATAATGCGGATTAGTACGGAGTCACCTAGTGCAG” the value was 33600 fluorescence intensity (a.u.); for “GTCTGAAGTGAAAATTGAATGGAAAATTAAAGTTGGTGATCGGAGTCACCTAGTGCAG”, 5380 fluorescence intensity (a.u.). For “ATTATCCATTCAATCAAAACAAGCAGGACTACTAGAAAGCCGGAGTCACCTAGTGCAG” the value was 8940 fluorescence intensity (a.u.).

As for “CACATTAGATTAAGTGATGAGATGGAGGAGAGAAGTAAGGCGGAGTCACCTAGTGCAG”, the binding signal is 6740 fluorescence intensity (a.u.). Take “ATTTGATTTTCTGTCTTTTCTTCAACTCGATTTTGTTAAACGGAGTCACCTAGTGCAG”: the binding signal is 8770 fluorescence intensity (a.u.). For “GGTAGTACTTAATTAATCACGCGCTAATAGACCGCTCTGTCGGAGTCACCTAGTGCAG” the value was 22600 fluorescence intensity (a.u.); for “TTAACTATCAAATGACTTATAATTTAAAGCGAAGGAAGTACGGAGTCACCTAGTGCAG”, 5120 fluorescence intensity (a.u.); for “TTAATTATACAGCCCGTTTTCTTCACCTTATTATACTCGGCGGAGTCACCTAGTGCAG”, 6110 fluorescence intensity (a.u.). For “CAAAATTACAGATTTAAGAAAACTATAGATTTAGTGTATTCGGAGTCACCTAGTGCAG” the value was 11000 fluorescence intensity (a.u.); for “TATTTTGTCTTGGTGATTGACTTGACTTGTAACCCCTAAGCGGAGTCACCTAGTGCAG”, 26600 fluorescence intensity (a.u.); for “TCAGATTGCTACAATAATATATAGTCTATGATTTTATCAACGGAGTCACCTAGTGCAG”, 9410 fluorescence intensity (a.u.). For “TGCAAATTGTTTGCAATTTGACAATAGAAATACTTGATCACGGAGTCACCTAGTGCAG” the value was 10700 fluorescence intensity (a.u.); for “TTTGTCTCTACAATTGCTAATTATATTGCAGATTAGTGTACGGAGTCACCTAGTGCAG”, 4410 fluorescence intensity (a.u.).

For the sequence “CGGGTCGATTGATTGCTAGGCGAAATTACCAAGTTACCCTCGGAGTCACCTAGTGCAG”, the binding signal is 48200 fluorescence intensity (a.u.). For “GCTCTAATCATATGGTTAATTAAAATGTGGCACACATGGTCGGAGTCACCTAGTGCAG” the value was 39900 fluorescence intensity (a.u.); for “TTGATTGTTTCATGTAAAATTTAAATATATTAGTTATATACGGAGTCACCTAGTGCAG”, 5700 fluorescence intensity (a.u.). For “AAAATCACCATCAATCCCCACATGTGAAGTGAGTGATAGACGGAGTCACCTAGTGCAG” the value was 17100 fluorescence intensity (a.u.); for “AAATAACAAATGGATCAATTTGCCAGCAATCTAGGCCCATCGGAGTCACCTAGTGCAG”, 10600 fluorescence intensity (a.u.). For “ATCTGACGAGAGTAAATTAATTGGACCGAATTAATCTGAACGGAGTCACCTAGTGCAG” the value was 36000 fluorescence intensity (a.u.); for “AAAGCTAATGTTTAATTAGTCCTACACTAATAATCCTCCTCGGAGTCACCTAGTGCAG”, 3440 fluorescence intensity (a.u.); for “GCATCATCTTAATTGACTGTAGTAGTACTAGTACGTAATGCGGAGTCACCTAGTGCAG”, 35200 fluorescence intensity (a.u.).

Take “CAAGATGAATCTTTTAAGCCTAATTGCGTCATGATTTGACCGGAGTCACCTAGTGCAG”: the binding signal was 4180 fluorescence intensity (a.u.). For “TACACTAATTACAAAACACATTCCATATCCTTGGACTAATCGGAGTCACCTAGTGCAG” the value was 9720 fluorescence intensity (a.u.); for “TCTTTTGACCAATTAAGTTCAGTTACCAGAGAGGTTGATTCGGAGTCACCTAGTGCAG”, 5360 fluorescence intensity (a.u.).

For “CCACATCATCTAAATTGTTTCTTTATCCCTATGATAGTTGCGGAGTCACCTAGTGCAG”, the binding signal was 4360 fluorescence intensity (a.u.).
